This is an account of results in paper PMC9549573 (Current biology : CB, 2022).

The target of the test is T1, GST-tagged FMN2 spindle-periphery localization domain (GST-SLD) (mouse, UniProt Q9JL04 275-734).
T1 sequence (looked up): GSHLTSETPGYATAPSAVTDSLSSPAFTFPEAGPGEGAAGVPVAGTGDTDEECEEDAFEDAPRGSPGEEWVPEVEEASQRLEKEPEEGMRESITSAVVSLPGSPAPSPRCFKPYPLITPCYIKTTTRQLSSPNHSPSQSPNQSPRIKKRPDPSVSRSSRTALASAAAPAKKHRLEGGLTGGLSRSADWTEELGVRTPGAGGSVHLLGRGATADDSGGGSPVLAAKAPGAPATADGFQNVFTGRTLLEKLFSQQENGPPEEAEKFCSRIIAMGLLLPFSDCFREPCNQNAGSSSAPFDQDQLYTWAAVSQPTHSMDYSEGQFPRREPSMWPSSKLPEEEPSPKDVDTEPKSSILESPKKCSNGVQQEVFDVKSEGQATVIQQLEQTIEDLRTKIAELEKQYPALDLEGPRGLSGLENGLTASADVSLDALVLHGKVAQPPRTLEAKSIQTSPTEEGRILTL
The experiment in a line: pull-down.

B1: His-tagged FMN2 FH2 domain ([…]) (domain or fragment)
chain: not shown
As for B1, the binding result is reported as “binds”.
